Assay results taken from publication PMC13083723 (Patterns, 2026).
The campaign covered roughly 5,400 compounds. About 190 (3.5%) showed an effect of 50% or more. The list shows a part of the results.

System: Vero-E6
Experiment: primary screen, phospholipidosis by LipidTOX staining; higher = more effect of the substance
Settings: 10 µM
Summary of the method: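 Single-concentration screen at 10 μM, with DMSO 0.1 v/v % and amiodarone 10 μM as controls. Read-out is LipidTOX Red phospholipid staining, which tolerates aldehyde fixation, in Vero-E6 cells.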

SMILES	result_ITMP [%]
O=C1CCCC(=O)C1C(=O)c1ccc(C(F)(F)F)cc1[N+](=O)[O-]	-5.98
CC(C(=O)O)c1ccc(C(=O)c2ccccc2)s1 (stereo not shown)	-1.57
C=CC(=O)Nc1cccc(Oc2nc(Nc3ccc(N4CCN(C)CC4)cc3)nc3ccsc23)c1	37.8
NC(=O)NS(=O)(=O)c1ccc(N)cc1	2.89
CC(=O)N(CC(O)CN(C(C)=O)c1c(I)c(C(=O)NCC(O)CO)c(I)c(C(=O)NCC(O)CO)c1I)c1c(I)c(C(=O)NCC(O)CO)c(I)c(C(=O)NCC(O)CO)c1I (stereo not shown)	-5.4
c1ccc(CN(CC2=NCCN2)c2ccccc2)cc1	16.9
CN(C)Cc1ccc(S(=O)(=O)n2ccc(/C=C/C(=O)NO)c2)cc1	12.1
CN/C(=N\C#N)NCCSCc1nc[nH]c1C	-2.74
O=C1O[C@@H](CO)[C@H](O)[C@@H](O)[C@@H]1O	-9.63
COc1cc(/C=C/C(=O)N2CCCCCCC2)cc(OC)c1OC	-10.7
Fc1ccc(CN2CCC(Nc3ccc(C(F)(F)F)nn3)CC2)cc1F	16.7
O=C(O)C1=CCCN(CCON=C(c2ccccc2)c2ccccc2)C1	5.78
c1nc(CC2CCNCC2)c[nH]1	0.67
N=C(Nc1ccc(I)cc1)NC1C2CC3CC(C2)CC1C3 (stereo not shown)	0.78
Cc1cc(OCc2nnc(SC3CCCC3)n2-c2cccnc2)ccc1-c1ccc(S(C)(=O)=O)cc1	9.92
CNC(=O)c1ccc(C)c(-n2c(C)cc(OCc3ccc(F)cc3F)c(Br)c2=O)c1	-5.67
CC(=O)NCCc1c[nH]c2ccccc12	-3.74
C/C=C/C/C=C/CCC(=O)[C@H]1O[C@H]1C(N)=O	5.72
CNC(=N)NCCC[C@H](N)C(=O)O	-4.2
CN1C2CCC1CC(OC(=O)C(CO)c1ccccc1)C2 (stereo not shown)	-0.43
COCCOc1ccc(N2CCN(CCn3ncc4c3nc(N)n3nc(-c5ccco5)nc43)CC2)cc1	0.68
C=CCSCC1Nc2cc(Cl)c(S(N)(=O)=O)cc2S(=O)(=O)N1 (stereo not shown)	-5.85
COc1cc2nc(N3CCC(N4CCCCC4)CC3)nc(NC3CCCCCC3)c2cc1OC	18.5

SMILES	result_ITMP [%]
CCCCCCCCCCCC[N+](C)(C)CCOc1ccccc1	7.61
NC(=O)c1cccc(N)c1	-8.29
CC(C)NCC(O)c1ccccc1Cl (stereo not shown)	35.6
CC(C)(O)c1ccccc1CC[C@@H](SCC1(CC(=O)[O-])CC1)c1cccc(/C=C/c2ccc3ccc(Cl)cc3n2)c1	3.69
Cc1ccc(-n2nc(C(C)(C)C)cc2NC(=O)Nc2ccc(OCCN3CCOCC3)c3ccccc23)cc1	-0.6
CCCCCCCCCCCCCCCC=O	-3.07
NS(=O)(=O)c1ccc(-n2nc(C(F)(F)F)cc2-c2ccc(Cl)cc2)cc1	-1.56
c1ccc(CNc2ncnc3nc[nH]c23)cc1	-8.79
O=C(O)CCc1cc(I)c(Oc2ccc(O)cc2)c(I)c1	-2.71
CN(C)C/C=C/C(=O)Nc1cc2c(Nc3ccc(F)c(Cl)c3)ncnc2cc1O[C@H]1CCOC1	108
CN1Cc2c(N)cccc2C(c2ccccc2)C1 (stereo not shown)	0.64
Nc1ccc(C(=O)OCC(O)CO)cc1 (stereo not shown)	-4.7
C1=C/COCc2cc(ccc2OCCN2CCCC2)Nc2nccc(n2)-c2cccc(c2)COC/1	78.8
CN1CCC2=C(C1)C(c1ccccc1)c1ccccc12 (stereo not shown)	6.76
O=C1NC(=O)C(=Cc2ccc(-c3ccc(F)cc3)o2)S1 (stereo in doubt)	-6.32
CC(C)c1cc(C(C)C)c(-c2csc(N(CCN(C)C)Cc3cccnc3)n2)c(C(C)C)c1	9.08
CCOC(=O)NNc1ccc(N(CC)CC(C)O)nn1 (stereo not shown)	0.64
C#CCC(Cc1cnc2nc(N)nc(N)c2n1)c1ccc(C(=O)N[C@@H](CCC(=O)O)C(=O)O)cc1 (stereo partly shown)	-4.66
O=C(O)c1ccccc1NC(=O)N1CCC(c2ccccc2C(F)(F)F)CC1	-0.92
COCCNC(=O)Cn1cnc([N+](=O)[O-])n1	-8
CC(C)(C)NCC(O)COc1cccc2[nH]c(=O)[nH]c12 (stereo not shown)	-1.16
COc1c(N2CCNC(C)C2)c(F)cc2c(=O)c(C(=O)O)cn(C3CC3)c12 (stereo not shown)	3.33
O=C(c1ccccc1)c1ccc2n1CCC2C(=O)O (stereo not shown)	-4.44
